Data published in the RNAGym collection of RNA variant scans (doi:10.1093/nar/gkz1192).
The source gives no read counts; variants with many changes may rest on few reads.

B1: CPEB3 Ribozyme (parent)
chain: UAACAGGGGGCCACAGCAGAAGCGUUCACGUCGCAGCCCCUGUCAGAUUCUGGUGAAUCUGCGAAUUCUGCUGUAUAUCUC

Variants of: B1
Assay: self-cleavage, relative activity (ratio to wild type); higher = more cleavage; in vitro, sequencing
Outline: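 Libraries of CPEB3 self-cleaving ribozyme mutants came from rounds of error-prone PCR and carried barcodes, which DNA sequencing matched to variants. In vitro transcription used T7 RNA polymerase at 37°C for 5 hours, with a further 15 min in DNase I before EDTA stopped the reaction; the ribozymes cleaved during both steps. The RNA was reverse transcribed with template switching and sequenced on Illumina. Relative activity is the cleaved/total read fraction of a variant divided by that of the unmutated ribozyme, averaged over three batches with at least 5 reads.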

Variant | self-cleavage
G33A U41C C44G A56G G70A | 0.06
G33A U41C U49C U60A U80C | 0.09
G33A U43A U60C | 0.52
G33A U43C U54A U74C | 0.48
G33A U43C U72C | 0.08
G33A U43C U80C | 0.45
G33A U49C U60C A75U | 0.09
G33A U51C U69C | 0.12
G33A U54C A64G | 0.06
G33A U60A C68U | 0.16
G33A U60C U67A U74C | 0.11
G33A U66A A77G U78C | 0.06
G33C A35U U41A G70A | 0.07
G33C C38U A45U G55U C68A | 0.1
G33C G52C U54G A57G | 0.12
G33C U41C U78C | 0.42
G33C U43C U51A A75U | 0.09
G33C U48C G73C U78C | 0.13
G33C U60C U76C | 0.13
G33U A47G U66C | 0.08
G33U A65G U69A | 0.17
G33U C39U U41C U58C | 0.2
G33U U41C C50U A56U G63A | 0.14
G33U U43A U76A | 0.36

Variant | self-cleavage
G33U U43C A77G | 0.15
G33U U49A A65G | 0.38
G33U U49C U60C | 0.18
G33U U51A A65G | 0.2
G33U U51A U58C | 0.08
G33U U51A U76C C81U | 0.07
G33U U51A U78C | 0.09
G33U U51G U80A | 0.08
G33U U54C U78C | 0.15
G33U U54G U60G U69C U76C | 0.08
G33U U60C G61A U74A | 0.13
G33U U69C U74C | 0.13
C34A C40U A64G U66C | 0.09
C34A G46U U58C | 0.1
C34A U41C A47G A64U U66C | 0.08
C34A U43C A56U | 0.19
C34A U48C A65G A75C U80C | 0.07
C34A U48C U60C U76C U80C | 0.11
C34A U60G U78C | 0.11
C34G A35G A64G U78A | 0.68
C34G A45G U76A U80A | 0.15
C34G A56U U74C | 0.19
C34G C40A U43C A64G U76A | 0.12
C34G C40A U69A | 0.17

Variant | self-cleavage
C34G U48C U49C U67A | 0.09
C34G U51C G53A U67A U74C | 0.19
C34G U60C U69A | 0.11
C34U A35G G42A U66C | 0.33
C34U A35U U80C | 0.25
C34U A45G A57G U69C U80C | 0.19
C34U C71U U76C | 0.09
C34U U48C A56G U76C U80A | 0.05
C34U U48C U74C C81A | 0.59
C34U U49C U78G | 0.12
C34U U51A A65G U72A | 0.35
C34U U60C U78A | 0.06
C34U U69C U72A | 0.36
C34U U72A U80A | 0.51
A35C A45G A57G A65G U72C | 0.27
A35C A45U C59A A64U U78A U80A | 0.04
A35C C37U A56G A57G | 0.15
A35C U41C U54C U60A G63A A77U | 0.19
A35C U41C U78C | 0.74
A35C U48C A64G | 0.19
A35C U48C A75U | 0.59
A35C U49G A56U U72G | 0.77
A35C U54A U66C U72C | 0.4
A35C U58A A65G U67C | 0.17

Variant | self-cleavage
A35C U60G A65G | 0.1
A35G A45G A56U A65G C68U G70A | 0.4
A35G A45G G55A A64G U67A U80C | 0.57
A35G A45G U80A | 1.27
A35G A47G C59U | 1.19
A35G A47G G53U A57U | 1.04
A35G A47U U60A U78C | 0.74
A35G A47U U78C | 1.23
A35G A56G A57G | 1.23
A35G A56G A77U | 1.35
A35G A56G C62A U80C | 0.22
A35G A56G U67A | 1.05
A35G A56U U72C U74A | 0.8
A35G A57G A64G U67C | 0.55
A35G A64G U69C | 0.96
A35G A64G U69C A75G U80C | 0.93
A35G A64G U76A | 1.27
A35G A64U A65G U78A | 0.53
A35G A65G U69C | 0.71
A35G A75U U78A | 1.27
A35G A75U U78C | 1.28
A35G C37G A45G | 0.6
A35G C37U U72C U80C | 1.31
A35G C38A U43C U51A U54G U78A | 0.93

Variant | self-cleavage
A35G C39G U76C A77C | 0.6
A35G C39U A65G C71A | 0.44
A35G C39U U41C | 1.18
A35G C40U A47G U51A | 1.3
A35G C40U U78C | 1.24
A35G C44U G46C A47G | 0.13
A35G C44U U48A U80C | 0.39
A35G C50U A57U U69A | 0.45
A35G C59U A77U U80A | 1.3
A35G G36C G55U U67C A77U U78G | 0.07
A35G G42A U43C U54C A56G A65U | 0.17
A35G G42U U58A | 0.13
A35G G46A C62U U72A U80C | 0.16
A35G G46C A56G | 0.38
A35G G53A A75G U80C | 1.31
A35G G61A A64G | 1.08
A35G U41A A56G U60G | 0.09
A35G U41A A57G U58C | 0.09
A35G U41A A57G U80C | 0.17
A35G U41A A57U C71U | 0.11
A35G U41A C62U | 0.15
A35G U41A U48C | 0.2
A35G U41A U48C C62U G70U U80G | 0.06
A35G U41A U54A | 0.58

Variant | self-cleavage
A35G U41A U66A U72C U80C | 0.09
A35G U41A U67G | 0.24
A35G U41C A47U A65G U72C | 0.32
A35G U41C A57G U69C | 1.22
A35G U41C U49C U54C G63A C68G U78C | 0.18
A35G U41C U51C | 1.2
A35G U41C U51C A56G U72C | 1.26
A35G U41C U54C A64G | 1.39
A35G U41C U66G U80C | 1.2
A35G U41C U69C U72A | 0.53
A35G U41C U72A U78C | 1.23
A35G U41G G73A | 0.33
A35G U43A A45U A47G | 1.19
A35G U43A A45U U76C | 1.27
A35G U43A C44A U76C A77G | 1.73
A35G U43C A45U U78C | 0.6
A35G U43C A56G U58A U60C | 0.18
A35G U43C A64U | 0.2
A35G U43C G52A A57U | 0.71
A35G U43C U48C G52U A56G | 0.93
A35G U43C U54C U60G U67C U78C | 0.14
A35G U48A U76C | 1.28
A35G U48C A75G U78A | 1.25
A35G U48C U51A U80C | 1.27

Variant | self-cleavage
A35G U48C U60C G73A | 0.3
A35G U48C U60C U80G | 0.3
A35G U48C U78C | 1.21
A35G U49A G70A | 0.76
A35G U49C A57U U67C | 0.14
A35G U49C A77U | 1.01
A35G U49G G52U A64G | 1.25
A35G U51A A57G U60C | 0.76
A35G U51A A64U | 1.17
A35G U51A A65U U67A U76A | 0.91
A35G U51A C62U | 0.3
A35G U51A U66C U78C | 1.14
A35G U51A U69C | 1.46
A35G U51C A64G | 1.28
A35G U51C A65U U72G | 0.99
A35G U54C A56U U67C G70C U72C | 0.51
A35G U54C C62A A77U | 0.18
A35G U54G A57U U72C | 0.84
A35G U54G U60G A64U U69A | 0.51
A35G U58A U74C | 1.1
A35G U58C U67C | 0.51
A35G U60A U74C | 1.26
A35G U60C U69C | 0.74
